Measured values published in paper PMC6919601, “Identification of Plasmodium dipeptidyl aminopeptidase allosteric inhibitors by high throughput screening” (PLoS ONE, 2019).
Hit rate of the full screen: of about 110,000 compounds, about 230 (0.21%) showed an effect of 50% or more. Some of the results follow.

biological target: DPAP1 (Plasmodium falciparum, UniProt Q8IIJ9); experiment: primary screen, percent inhibition; read by cleavage of a fluorogenic dipeptide substrate; higher = more effect of the substance; design: species or system P. falciparum D10 trophozoite lysates; single well
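Further: 30 min substrate incubation versus DMSO and 10 µM JCP410 controls.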

Chain of DPAP1 (Q8IIJ9 whole entry, looked up): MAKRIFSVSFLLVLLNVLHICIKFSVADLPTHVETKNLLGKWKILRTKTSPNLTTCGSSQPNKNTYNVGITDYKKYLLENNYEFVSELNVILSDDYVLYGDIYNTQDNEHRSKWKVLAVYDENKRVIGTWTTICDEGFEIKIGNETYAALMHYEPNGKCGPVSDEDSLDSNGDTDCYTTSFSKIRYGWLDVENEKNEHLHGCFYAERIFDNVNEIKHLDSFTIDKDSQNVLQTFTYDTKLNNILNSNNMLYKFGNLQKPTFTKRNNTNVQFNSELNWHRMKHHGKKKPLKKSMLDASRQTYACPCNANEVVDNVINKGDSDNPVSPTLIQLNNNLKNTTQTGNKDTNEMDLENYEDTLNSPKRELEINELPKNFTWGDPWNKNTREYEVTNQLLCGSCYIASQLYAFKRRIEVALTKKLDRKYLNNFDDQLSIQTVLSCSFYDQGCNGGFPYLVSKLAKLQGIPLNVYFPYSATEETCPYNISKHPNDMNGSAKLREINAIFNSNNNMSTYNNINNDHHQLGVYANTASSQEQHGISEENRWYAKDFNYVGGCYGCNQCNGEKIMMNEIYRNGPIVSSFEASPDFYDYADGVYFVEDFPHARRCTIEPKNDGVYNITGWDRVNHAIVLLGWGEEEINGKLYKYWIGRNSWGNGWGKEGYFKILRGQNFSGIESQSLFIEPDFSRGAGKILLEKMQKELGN

| Structure (SMILES) | % Inhibition @ 10 uM |
| --- | --- |
| CCOc1ccccc1/C=c1\sc2nc(=O)c(Cc3ccc(C)cc3)nn2c1=O | -4.14% |
| NC(=O)C1CCCN(C2CCc3ccccc3C2)C1 (centres unmarked) | -1.5% |
| CN1CCC(N(C)Cc2ccc(Cl)c(Cl)c2)CC1 | -0.969% |
| CCC(=O)C1=C(Nc2cccc3ccccc23)CCCC1=O | -0.0959% |
| COc1cc2c(cc1OC)C(C(=O)N1CCN(C)CC1)C(c1ccccc1F)N(C)C2=O (centres unmarked) | 4.79% |
| CN(C)c1cc(N)c2c(n1)CCC2 | -5.16% |
| Cc1ccc(NS(=O)(=O)c2cccc(C(=O)Nc3cccc(C)c3)c2)cc1 | -1.77% |
| Cn1nc(C(=O)NC2CCCCC2)c2ccccc2c1=O | -4.78% |
| Cc1oc(-c2ccccc2Cl)nc1CSCC(=O)NCCc1ccc(Cl)cc1 | -2.85% |
| O=C(NC1CCCCC1)c1ccccc1NS(=O)(=O)c1ccc(Br)s1 | -2.92% |
| CN(Cc1ccccc1)S(=O)(=O)c1nnc(NC(=O)/C=C/c2ccccc2)s1 | 0.522% |
| Cc1cccc(-n2c(C)nc3cc(C(=O)N4CCC5(CC4)OCCO5)ccc32)c1 | 2.84% |
| COCCCNc1sc(S(C)(=O)=O)nc1S(=O)(=O)c1ccc(Cl)cc1 | -4.04% |
| CC1CN(S(=O)(=O)c2ccc(Cl)cc2)CCN1S(=O)(=O)c1ccc(Cl)cc1 (centres unmarked) | 2.26% |
| CCN1CCN(c2oc(-c3ccccc3)nc2C#N)CC1 | -4.93% |
| O=C(Nc1nc(COc2ccccc2)cs1)C12CC3CC(CC(C3)C1)C2 | -6.59% |
| CCC(=O)c1c(O)c2ccccc2n(C)c1=O | -5.92% |
| CCOc1cc(-c2c(C#N)c(N)nc3c2CCCC3C)ccc1O (centres unmarked) | 8.82% |
| COc1ccc(-c2cn3cccnc3n2)cc1F | -1.52% |
| Cc1ccc(N(CC(=O)N2CCN(Cc3ccccc3)CC2)S(=O)(=O)c2ccc(F)cc2)cc1 | 3.09% |
| CC(C)c1ccc(OCC(O)CN2CCCC2)cc1 (centres unmarked) | -2.81% |
| O=C(NCc1ccccc1Cl)c1cnn2c3c(cnc12)CCCCC3 | -3.57% |
| COc1ccc(/C=C/C2=NC(=C\c3ccccc3F)/C(=O)O2)cc1 | 5.63% |
| O=C(c1cc2nc(-c3ccccc3)cc(C(F)(F)F)n2n1)N1CCN(c2ccc(F)cc2)CC1 | 4.88% |
| O=C1c2ccccc2C(=O)N1CCCC(=O)n1cccn1 | 1.76% |

| Structure (SMILES) | % Inhibition @ 10 uM |
| --- | --- |
| COc1ccccc1CC(=O)O/N=C(\N)c1ccncc1 | -1.33% |
| O=S(=O)(c1cc(Cl)ccc1Cl)N1CCN(c2ccc(F)cc2)CC1 | 2.99% |
| C=CCNc1cc(-c2ccccc2)nc2nncn12 | 0.895% |
| COc1ccc(C2C(=O)N(C3CCCCCC3)CC(=O)N2Cc2ccccc2OC)cc1 (centres unmarked) | 1.16% |
| CCCOC(=O)c1ccc(NC(=O)c2ccc(OC)cc2)cc1 | 3.53% |
| CC1(C)Cc2c(ccc3ccccc23)/C(=C\C(=O)N2CCCC2)N1 | 1.02% |
| COc1ccc(C2C(C#N)=C(N)OC3=C2C(=O)CC(c2ccccc2Cl)C3)cc1 (centres unmarked) | 4.7% |
| N#CCNC(=O)[C@H](Cc1ccc2ccccc2c1)NC(=O)c1ccccc1 | -5.21% |
| CCCCN1CC2CC=C(Cl)CC2C1 (centres unmarked) | 2.56% |
| Cc1ccc(-c2ccc(/C=c3/sc4nc5ccccc5n4c3=O)o2)cc1Cl | 4.32% |
| CC(C)COc1cccc(C(=O)Nc2ccc(F)cc2F)c1 | -3.77% |
| O=C1CSC(c2ccccc2Br)N1c1ccc(Cl)cn1 (centres unmarked) | 0.605% |
| Cc1nn(C(=O)CCCC(=O)NCc2ccccc2Cl)c2ccccc12 | -1.11% |
| COc1ccc(NC(=O)CN(Cc2ccc(Cl)c(Cl)c2)S(=O)(=O)c2ccccc2)cc1 | 4.25% |
| COc1ccccc1OCC(=O)N(Cc1nc(-c2cccc(C)c2)no1)C1CCCCC1 | 3.74% |
| Cc1ccccc1CCNC(=O)Cn1ccc2cc(S(=O)(=O)N3CCCC3)ccc21 | 22.8% |
| CCOc1ccc(Nc2nc(C)cc(C)c2C(N)=O)cc1 | -7% |
| Cc1cccc(S(=O)(=O)Nc2cccc(-c3cn4ccsc4n3)c2)c1 | -0.413% |
| COc1ccc(N2C(=O)/C(=C\c3ccccc3OC)N=C2c2ccccc2)cc1 | 6.82% |
| CNC(=S)N(CCc1c(C)[nH]c2ccc(Cl)cc12)Cc1ccccn1 | -4.14% |
| Cc1ccc(S(=O)(=O)Cc2ccc(C(=O)NC3CCCC3)o2)cc1 | -1.28% |
| CC1CCCC(NC(=O)CCCN2C(=O)CSc3ncccc32)C1C (centres unmarked) | -4.15% |
| O=C(Nc1ccc(Br)c2cccnc12)c1ccc(Cn2cc(Cl)cn2)cc1 | -1.64% |
| CC(C)(CO)Nc1nc(N2CCOCC2)nc(N2CCOCC2)n1 | 2.56% |
| CCC(C)N(Cc1ccc(F)cc1)S(=O)(=O)c1ccc(S(=O)(=O)NC2CCCC2)cc1 (centres unmarked) | -1.31% |
